In patent US20220340685A1, “COMBINATION THERAPY WITH ENTPD2 AND CD73 ANTIBODIES” (Novartis AG, priority 2019, published 2022):
Read-outs that look alike come from different tables or passages of the source.

Tests used:
B16LM3 clone B5 tumors = test: Plasma and tumor cytokines in human ENTPD2 engineered B16LM3 clone B5 model; assay type: in vivo, C57BL/6 mice; conditions: 24 hr after 10 mg/kg, vs Isotype Control
Experimental: In order to understand immediate impact of ENTPD2 blockade from immune pathway engagement perspective, plasma and B16LM3 clone B5 tumors (mean tumor volume ˜170 mm^3) were collected from C57BL/6 mice 24 hr after treatment with anti-human ENTPD2 mAb1 or Isotype Control at 10 mg/kg.
Briefly, plasma was isolated via collection of blood into Microvette MV-H-300 Capillary Plasma Lithium Heparin Blood Collection tube (Sai Infusion technologies, Lake Villa, Ill.), that were spun down at 1000-2000 ×g for 10 min. Plasma samples were stored at −80° C. until use. Tumor samples were surgically excised and immediately frozen in liquid nitrogen. Tumor tissue was then homogenized in T-PER Tissue Protein Extraction Reagent (ThermoFisher, Waltham, Mass.) using the TissueLyser (Qiagen, Germany) instrument. Tumor lysate samples were spun down at 11,000 rpm for 15 min and supernatants were collected for protein concentration analysis using Pierce BCA Protein Assay Kit (ThermoFisher, Waltham, Mass.). 200 μg of protein or 25 μl of undiluted plasma was used for cytokine analysis using the V-PLEX Mouse Cytokine 29-Plex Kit (MSD, Rockville, Md.) according to manufacturer's recommendations.

[1] = cynomolgus monkey, in vivo, iv

B1: mAb1: humanized anti-human ENTPD2 human IgG1 antibody derived from mAb17; heavy chain SEQ ID NO: 12, light chain SEQ ID NO: 23 (antibody)
heavy: EVQLVQSGAEVKKPGESLKISCKASGYTFTDYNMDWVRQMPGKGLEWMGDINPKYDISTYNQQFKGQVTISADKSIRTAYLQWSSLKASDTAMYYCARRGFFLYYGINYYYFDVWGQGTLVTVSSASTKGPSVFPLAPSSKSTSGGTAALGCLVKDYFPEPVTVSWNSGALTSGVHTFPAVLQSSGLYSLSSVVTVPSSSLGTQTYICNVNHKPSNTKVDKRV[left out - human IgG1 Fc]
light: DIQLTQSPSSLSASVGDRVTITCSASSSVSYIHWFQQKPGKAPKLLIYSTSNLASGVPSRFSGSGSGTFFTLTISSLQPEDFATYFCHQWSSYPWTFGQGTKVEIKRTVAAPSVFIFPPSDEQLKSGTASVVCLLNNFYPREAKVQWKVDNALQSGNSQESVTEQDSKDSTYSLSSTLTLSKADYEKHKVYACEVTHQGLSSPVTKSFNRGEC
decrease of IL-1β in plasma (B16LM3 clone B5 tumors): approximately 2 fold
increase in MCP1 at the tumor site (B16LM3 clone B5 tumors): approximately 2 fold
AUC (0-336 h)/D [1]: 3′160 μg * h/mL/mg/kg
AUC (0-inf)/D [1]: 4′083 μg * h/mL/mg/kg
AUC (0-336 h)/D ([1]; 3 mg/kg): 1′894 μg * h/mL/mg/kg
AUC (0-inf)/D ([1]; 3 mg/kg): 2′042 μg * h/mL/mg/kg
AUC (0-336 h)/D ([1]; 30 mg/kg): 3′145 μg * h/mL/mg/kg
AUC (0-inf)/D ([1]; 30 mg/kg): 3′811 μg * h/mL/mg/kg
